Assay results: publication PMC6919601, “Identification of Plasmodium dipeptidyl aminopeptidase allosteric inhibitors by high throughput screening” (PLoS ONE, 2019)
Screen size: about 110,000 compounds; about 230 (0.21%) showed an effect of 50% or more. The list shows a part of the results.

Target: DPAP1 (Plasmodium falciparum, UniProt Q8IIJ9)
Assay: primary screen, percent inhibition; read by cleavage of a fluorogenic dipeptide substrate; higher = more effect of the substance
Parameters: species or system P. falciparum D10 trophozoite lysates; single well
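Also: 30 min substrate incubation versus DMSO and 10 µM JCP410 controls.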

Chain of DPAP1 (Q8IIJ9 whole entry, looked up): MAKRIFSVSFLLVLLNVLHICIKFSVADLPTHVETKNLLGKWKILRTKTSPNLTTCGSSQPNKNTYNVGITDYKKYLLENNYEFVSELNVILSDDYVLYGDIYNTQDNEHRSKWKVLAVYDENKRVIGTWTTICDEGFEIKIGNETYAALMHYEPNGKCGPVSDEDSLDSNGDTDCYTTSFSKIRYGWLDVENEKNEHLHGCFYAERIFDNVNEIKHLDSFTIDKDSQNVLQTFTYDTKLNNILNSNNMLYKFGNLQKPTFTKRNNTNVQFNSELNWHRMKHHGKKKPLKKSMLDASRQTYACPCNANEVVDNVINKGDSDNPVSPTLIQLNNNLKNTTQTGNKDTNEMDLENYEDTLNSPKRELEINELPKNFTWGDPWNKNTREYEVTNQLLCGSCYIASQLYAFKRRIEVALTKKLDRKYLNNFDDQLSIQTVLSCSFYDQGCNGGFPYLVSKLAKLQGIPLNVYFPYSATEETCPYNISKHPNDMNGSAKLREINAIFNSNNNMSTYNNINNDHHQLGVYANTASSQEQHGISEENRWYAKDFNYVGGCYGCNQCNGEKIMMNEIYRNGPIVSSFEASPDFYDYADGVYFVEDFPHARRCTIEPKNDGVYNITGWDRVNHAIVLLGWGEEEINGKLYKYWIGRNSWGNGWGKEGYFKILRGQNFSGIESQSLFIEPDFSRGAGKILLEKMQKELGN

Row | SMILES | % Inhibition @ 10 uM
1 | Cc1ccc(CNC(=O)C2c3ccccc3C(=O)N3CCc4ccccc4C23)o1 (stereo not shown) | -3.12%
2 | CCOC(=O)C1=C(NC(=O)c2ccc(C)cc2)S/C(=C\C=C\c2ccccc2)C1=O | 1.52%
3 | COc1cccc(C2C(C(=O)c3ccccc3)=C(O)C(=O)N2CCC(=O)O)c1 (stereo not shown) | -9.6%
4 | Cc1cc(/C=C2/C(=N)N3C(=NC2=O)SN=C3S(=O)(=O)C(C)C)c(C)n1-c1ccccc1F | 6.59%
5 | Clc1ccc(Cn2c(CN3CCCC3)nc3ccccc32)cc1 | 1.26%
6 | Cc1cc(NC(=O)NC(=O)c2cccc(OC(F)(F)C(F)F)c2)no1 | 0.475%
7 | CCn1c2ccccc2c2cc(NC(=O)c3cccnc3)ccc21 | -5.16%
8 | CCc1ccc(-n2c(N)c(C(=O)OC)c3nc4ccccc4nc32)cc1 | 3.59%
9 | COc1ccc(-c2cc(C(=O)N3CCN(C(=O)c4ccccc4F)CC3)[nH]n2)cc1 | -1.87%
10 | Cc1nnc(NC(=O)CSc2ncnc3ccccc23)s1 | -9.16%
11 | CC(C)N(C(=O)c1ccccc1C(=O)O)C(C)C | 3.98%
12 | Cn1c(=O)[nH]c(=O)c2[nH]c(-c3ccc(O)cc3)nc21 | -1.72%
13 | Fc1ccc(N2CCN(CC(c3ccccc3)c3ccccc3)CC2)cc1 | 4.8%
14 | O[C@H]1CC[C@H](NC2CCSC2)CC1 (stereo partly shown) | 1.88%
15 | COCCNC(=O)CSc1cc(Cl)nc2ccc(C)cc12 | 5.88%
16 | COC(=O)c1sccc1NC(=O)c1cc2c(s1)-c1c(C)cccc1OC2 | -3.08%
17 | Cc1cc(C)n(CCc2nc3c4ccccc4nc(SCC(=O)N4CC(C)CC(C)C4)n3n2)n1 (stereo not shown) | 0.4%
18 | COc1ccc2c(c1)nc(NCCO)n2C | 3.01%
19 | CC1=C(C(=O)Nc2ccccc2F)C(c2cccs2)C2=C(O)CCCC2=N1 (stereo not shown) | -6.36%
20 | CCC1=NN(C(=O)c2cccc(C)c2)C(O)(C(F)(F)F)C1 (stereo not shown) | 4.05%
21 | CCOC(=O)N1CCC(NC(=O)Cn2ncc3c4ccccc4n(C)c3c2=O)CC1 | 6.02%
22 | COc1ccc(-c2csc(/C(C#N)=C/c3cccc(F)c3)n2)cc1 | 1.41%
23 | CS(=O)(=O)N1CCCC(C(=O)NCc2ccc(F)cc2Cl)C1 (stereo not shown) | -1.21%
24 | CCc1nc2[nH]nc(N)c2c2c1COC(C)(C)C2 | -0.872%
25 | O=C(NCc1cccnc1)c1ccc(Cl)c(Cl)c1 | 5.99%

Row | SMILES | % Inhibition @ 10 uM
26 | O=C(CSCc1ccccc1Cl)Nc1ccc2c(c1)C(=O)NC2=O | 3.99%
27 | CC(C)c1ccc(CN2CCCN(C)CC2)cc1 | 3.1%
28 | CCOc1ccccc1N1CCN(Cc2ccc(OC)c(C)c2)CC1 | -3.65%
29 | Cc1cc(Cl)ccc1OCC(=O)n1cnc2ccccc21 | -1.1%
30 | O=C1c2ccc(S(=O)(=O)c3ccc4c(c3)C(=O)N(CCO)C4=O)cc2C(=O)N1CCO | -4.43%
31 | CCN(CC)CC(=O)Nc1sc2c(c1C#N)CCCC2 | -0.906%
32 | COc1cccc2cc(-c3nc(-c4ccc5c(c4)OCO5)no3)c(=O)oc12 | -1.39%
33 | O=C(CNC(=O)c1ccc(F)cc1)c1ccccc1 | -4.39%
34 | CCC(=O)N1CCN(c2nc3c(c(=O)[nH]c(=O)n3C)n2CC)CC1 | -5.48%
35 | O=C(c1ccc(CSc2nc3ccncc3n2Cc2ccccc2)cc1)N1CCCCC1 | 2.99%
36 | COc1ccc(CNS(=O)(=O)c2cc(-c3cc(C)no3)ccc2C)cc1 | -2.62%
37 | CCC(=O)c1cc2ccccc2oc1=O | 7.89%
38 | N#CC1=C(N)Oc2cc3c(cc2C1c1ccc(OCc2ccccc2F)cc1)OCO3 (stereo not shown) | 1.37%
39 | COc1ccc(Cn2c(CCC(=O)O)nc3ncccc3c2=O)cc1 | -0.72%
40 | COc1ccccc1CN1CCN(Cc2ccco2)CC1 | -7.09%
41 | COc1ccccc1NC(=O)c1ccccc1NC(=O)CCC(=O)O | -2.09%
42 | c1cn(CCCNC2CCCCCC2)cn1 | -1.5%
43 | COc1cccc(S(=O)(=O)Nc2ccc(C(=O)Nc3ccc4c(c3)OCCO4)cc2)c1 | 5.54%
44 | Cc1cc2ncn(C(=O)c3ccc(F)cc3)c2cc1C | -5.28%
45 | CCOc1ccc2ncc(C(=O)c3ccccc3)c(O)c2c1 | 1.5%
46 | CCN(Cc1nc(-c2cccc(C)c2)no1)S(=O)(=O)c1ccc(F)cc1 | -0.946%
47 | COc1ccccc1CNCc1c(C(=O)O)n(Cc2ccccc2C)c2cc(C)ccc12 | 10.5%
48 | O=C1OC(c2ccc(Br)cc2)=N/C1=C\N1CC2CC(C1)c1cccc(=O)n1C2 (stereo not shown) | 19.3%
49 | CCOCCCNC(=O)C1=C(C)C(=O)OC12CCN(C(C)=O)CC2 | 2.62%
50 | OCC1CCCCN1Cc1c(Cl)cccc1Cl (stereo not shown) | 2.1%

Row | SMILES | % Inhibition @ 10 uM
51 | Cc1ccc(C(=O)/C=C(O)/C(O)=C/C(=O)c2ccc(C)cc2C)c(C)c1 | -2.39%
52 | CN(C(=O)CN)c1ccc(Br)cc1C(=O)c1ccccc1Cl | -2.32%
53 | COc1cc(OC)cc(C(=O)NCC23C=CC(O2)C2C(=O)N(c4ccc(Cl)cc4)C(=O)C23)c1 (stereo not shown) | 1.64%
54 | O=C(c1ccccc1)N1CC(COc2ccccc2)OC(c2cccs2)O1 (stereo not shown) | -1.06%
55 | Cc1ccc(/C=C(\NC(=O)c2ccccc2)C(=O)NCCCN2CCOCC2)o1 | 3.79%
56 | COc1cc(CNCc2c(C(=O)O)c(C)n(Cc3c(F)cccc3Cl)c2C)cc(OC)c1OC | -11.3%
57 | Cc1ccc(-c2cc(C(=O)NCc3ccco3)[nH]n2)cc1 | 0.44%
58 | CCOC(=O)N1CCN(C(=O)Cc2c(C(=O)O)n(C)c3ccccc23)CC1 | 2.84%
59 | CC(C)CC(C(=O)NCC#N)c1cccc(-c2csc(CN3CCNCC3)n2)c1 (stereo not shown) | 1.7%
60 | CCOc1ccc(C(=O)N(Cc2ccccc2)c2ccccn2)cc1 | -5.88%
61 | CCOC(=O)C1=C(C)N=c2s/c(=C\c3c(C)[nH]c4ccccc34)c(=O)n2C1c1ccc(OC)cc1 (stereo not shown) | -3.98%
62 | O=C(O)CC(CNS(=O)(=O)c1ccc(Br)cc1)c1ccccc1 (stereo not shown) | -4.49%
63 | COc1cccc(-n2nnc3c(=O)n(CC(=O)N4CCOCC4)cnc32)c1 | -5.79%
64 | O=[N+]([O-])c1cccc(CN2CCSCC2)c1 | -0.127%
65 | CCOC(=O)C1CCN(Cc2cc(Br)c(OC)cc2OC)CC1 | -3.56%
66 | Cc1ccc(S(=O)(=O)NCc2ccc(C(=O)N3CCc4ccccc4C3)cc2)cc1 | -5.22%
67 | CCN1C(=O)C(O)(CC(=O)c2ccccc2)c2cc(Br)ccc21 (stereo not shown) | -0.992%
68 | COc1ccc(Cc2nnc(NC(=O)COc3ccc(Cl)cc3)s2)cc1OC | 4.87%
69 | COc1ccc(C(=O)Nc2sc3c(c2C(N)=O)CCCC3)cc1OC | 2.01%
70 | Cc1noc(C)c1S(=O)(=O)N(CCc1ccccc1)Cc1ccccc1 | 0.128%
71 | O=C(Nc1ccncc1)c1cc2c(ccc3ccccc32)oc1=O | 3.25%
72 | COC(=O)c1ccc(NC(=O)c2cc(O)cc(O)c2)cc1 | 1.24%
73 | COc1ccc(OC)c(CN2CCN(Cc3ccccc3C(F)(F)F)CC2)c1 | 0.611%
74 | CCOC(=O)C1=C(C)N=C(C)/C(=C(/O)OCC)C1c1ccc(O)cc1 (stereo not shown) | -3.77%
75 | Cc1[nH]c2ccccc2c1/C=C(/C#N)C(=O)Nc1ccc(Cl)cc1 | -4.93%

Row | SMILES | % Inhibition @ 10 uM
76 | COc1ccc(C2C(C#N)=C(N)Oc3[nH]nc(C)c32)cc1COCC(F)(F)F (stereo not shown) | 2.38%
77 | CCOC(=O)c1sc2nc(N3CCOCC3)c3c(c2c1N)CCCC3 | -2.87%
78 | Cc1nn(C)cc1CNC(=O)c1cc2n(n1)C(C(F)(F)F)CC(c1ccc3c(c1)OCO3)N2 (stereo not shown) | -10%
79 | O=C(NCc1ccco1)c1ccccc1NS(=O)(=O)c1ccc(Br)s1 | -2.92%
80 | Nc1nonc1-c1nc2ccccc2n1CC(=O)Nc1ccccc1Br | -1.43%
81 | COc1cc(NC(=O)c2sc3nc4c(cc3c2N)CCCC4)cc(OC)c1OC | -2.32%
82 | COc1ccc(CCNS(=O)(=O)c2cccc(F)c2)cc1OC | -5.51%
83 | COc1ccc(C(=O)Nn2c(C)nnc2-n2nc(C)cc2C)cc1OC | -1.6%
84 | Clc1ccc(OCCCCCN2CCCCC2)cc1 | 4.34%
85 | CCOC(=O)c1cc(-c2ccccc2)sc1NC(=O)COc1cccc(Br)c1 | -1.1%
86 | COc1ccccc1CC(=O)NCc1nc(-c2ccccc2)no1 | -2.99%
87 | CCc1ccc(N2C(=O)C(Cl)=C(Nc3cccc(OC)c3)C2=O)cc1 | 1.35%
88 | Cc1ccc(C(=O)N2CCN(c3ccc(F)cc3)CC2)cc1C | -0.303%
89 | O=C(Cn1ncc2c3ccccc3nc-2c1O)NC1CCCc2ccccc21 (stereo not shown) | 1.9%
90 | CC(=O)c1c(S)nc(-c2ccccc2)nc1N1CCOCC1 | 4.12%
91 | CCc1ccc(-c2nc(CSCC(=O)N3CCOCC3)c(C)o2)cc1 | 2.37%
92 | CCCCn1c2ccc(C)cc2c2nnc(S)nc21 | 61%
93 | O=C1C2C(c3ccccc3)C=CC(c3ccccc3)C2C(=O)N1c1cccc([N+](=O)[O-])c1 (stereo not shown) | -6.71%
94 | COc1cccc(C(=O)N[C@@H](CSCc2ccccc2)C(=O)NCC#N)c1 | 1.35%
95 | COc1ccccc1C1C(C#N)=C(N)Oc2[nH]nc(-c3ccccc3Cl)c21 (stereo not shown) | 1.03%
96 | O=C(Nc1cccc(Cl)c1Cl)c1cnccn1 | 3.82%
97 | CN1CCc2c(sc3c2C(=O)NC(c2ccc(COc4ccc(Cl)c(Cl)c4)o2)N3)C1 (stereo not shown) | 5.52%
98 | COc1ccc(-c2cc3nc(C)cc(C)n3n2)cc1 | 1.54%
99 | COc1ccc(OCc2ccc(C(=O)N3N=C(C(F)F)CC3(O)C(F)F)cc2)cc1 (stereo not shown) | -3.71%
100 | CC1CCCCC1NC(=O)Cn1ncn2c(cc3sccc32)c1=O (stereo not shown) | 1.8%
